Assay results as given in article PMC1831776, “Structure and characterization of a novel chicken biotin-binding protein A (BBP-A)” (BMC Structural Biology, 2007).

Target: T1, avidin isolated from chicken egg-white (wtAVD) (chicken), P02701
T1 chain: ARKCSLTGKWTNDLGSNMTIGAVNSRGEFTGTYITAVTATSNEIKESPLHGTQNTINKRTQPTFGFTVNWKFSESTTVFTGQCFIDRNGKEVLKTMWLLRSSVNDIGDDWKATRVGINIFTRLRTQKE
Assay: SEC; gel filtration, Superdex 200 10/300 GL, 50 mM NaPO4, 650 mM NaCl, pH 7.0; samples without BTN and after 15 min with 0.22 mM BTN; apparent masses from standard proteins
Settings: remark: other sources report otherwise

B1: avidin isolated from chicken egg-white (wtAVD), P02701 25-152 (natural protein)
chain: ARKCSLTGKWTNDLGSNMTIGAVNSRGEFTGTYITAVTATSNEIKESPLHGTQNTINKRTQPTFGFTVNWKFSESTTVFTGQCFIDRNGKEVLKTMWLLRSSVNDIGDDWKATRVGINIFTRLRTQKE
stoichiometry N: 4
